The target of the assay is Genome polyprotein (dengue virus type 2) (UniProt P29990).
The mark [1] stands for this setting: Thailand/16681/1984, Concentration 25.0 uM, Number of replicates 1.0.

The structures appear in SMILES notation. The whole screen tested about 2,000 compounds, of which about 110 (5.5%) showed an effect of 50% or more. The list shows a part of the results.

Here are results for 21 compounds from ChEMBL document CHEMBL5606460, “ASAP - DENV-2 NS2B-NS3 protease fluorescence single point” (2024).

For orientation: inhibition means the change of the read-out against control, counted positive when it falls. Consider `CN(C)Cc1cccc(CNC(=O)C2CCN(c3ccc(C=O)cc3)CC2)c1`, for which the inhibition under setting [1] was 11.4%.

For `Cc1cnccc1NC(=O)c1csc(CC(C)C)n1`, the inhibition is -0.596% (Thailand/16681/1984, Concentration 49.5 uM, Number of replicates 2.0, Standard deviation 0.5845342205291042 %); 0.642% (Thailand/16681/1984, Concentration 99.01 uM, Number of replicates 2.0, Standard deviation 0.6476682292332556 %); 2.78% (Thailand/16681/1984, Concentration 198.0 uM, Number of replicates 2.0, Standard deviation 0.2857360767661525 %).

In the case of `Cc1cc(CO)c2cccc(Cc3ccccc3NC(=O)c3nc(N)n[nH]3)c2n1`, the inhibition (Thailand/16681/1984, Concentration 49.95 uM, Number of replicates 2.0, Standard deviation 1.581349166072865 %) stood at 0.804% and the inhibition (Thailand/16681/1984, Concentration 99.9 uM, Number of replicates 2.0, Standard deviation 1.2268610426733166 %) worked out at 4.88%.

For `Cc1n[nH]c(NC(=O)C2CCN(c3ccc(C=O)cc3)CC2)c1Br`, under setting [1], the inhibition came to 12.1%.

`CC(=O)Nc1ccc(C(=O)Nc2cccc(Cc3cccc4c(CO)cc(C)nc34)c2)cn1`: the inhibition was -2.81% (Thailand/16681/1984, Concentration 49.95 uM, Number of replicates 2.0, Standard deviation 1.3917429700895119 %) and 0.959% (Thailand/16681/1984, Concentration 99.9 uM, Number of replicates 2.0, Standard deviation 0.3587453765676338 %).

For `CN1CCC(C#N)(C(=O)N2CC(NC(=O)c3ccc4[nH]c(N(C)C)nc4c3)C2)CC1`, the inhibition is, setting by setting: (Thailand/16681/1984, Concentration 49.5 uM, Number of replicates 2.0, Standard deviation 1.0687011266628357 %) -0.915%; (Thailand/16681/1984, Concentration 99.01 uM, Number of replicates 2.0, Standard deviation 1.1266884994016249 %) 0.418%; (Thailand/16681/1984, Concentration 198.0 uM, Number of replicates 2.0, Standard deviation 1.3635152868867346 %) 2.18%.

In the case of `O=Cc1ccc(N2CCC(C(=O)Nc3nc4c(Cl)cccc4s3)CC2)cc1`, the inhibition under setting [1] turned out to be 13.4%.

As for `CN(C)Cc1cc(CNc2cc(Cl)cc(C(=O)NC(C)(C)CO)c2)ccc1O`, the inhibition by setting is: (Thailand/16681/1984, Concentration 49.5 uM, Number of replicates 2.0, Standard deviation 0.18311558131267536 %) -4.3%; (Thailand/16681/1984, Concentration 99.01 uM, Number of replicates 2.0, Standard deviation 1.0273017841204188 %) -5.89%.

For the compound `Cc1c(C(=O)N[C@@]2(C)CCN(Cc3cnn[nH]3)C2)ccc(O)c1NC(=O)c1ccncc1F`, the inhibition is, setting by setting: (Thailand/16681/1984, Concentration 49.5 uM, Number of replicates 2.0, Standard deviation 1.4737053563327684 %) -3.39%; (Thailand/16681/1984, Concentration 99.01 uM, Number of replicates 2.0, Standard deviation 1.2620179206523758 %) -3.3%; (Thailand/16681/1984, Concentration 198.0 uM, Number of replicates 2.0, Standard deviation 0.0004767651503552333 %) -1.52%.

On to `O=Cc1ccc(N2CCC(C(=O)N3CCN(C/C=C/c4ccccc4)CC3)CC2)cc1`, for which, under setting [1], the inhibition is 10.7%.

`O=Cc1ccc(N2CCC(C(=O)N3CCN(C(=O)c4ccc(O)cc4)CC3)CC2)cc1`: the inhibition under setting [1] came to 12.3%.

With `NC(=O)C1CCN(Cc2c[nH]c3ccccc23)CC1`, the inhibition was -4.32% (Thailand/16681/1984, Concentration 49.5 uM, Number of replicates 2.0, Standard deviation 4.733884122874981 %); -4.51% (Thailand/16681/1984, Concentration 99.01 uM, Number of replicates 2.0, Standard deviation 4.912883221493597 %); -4.2% (Thailand/16681/1984, Concentration 198.0 uM, Number of replicates 2.0, Standard deviation 5.116814330495681 %).

Regarding `COc1cc(C(=O)NCc2ccccc2)nc(N2CCNCC2)n1`, the inhibition was -1.95% (Thailand/16681/1984, Concentration 49.5 uM, Number of replicates 2.0, Standard deviation 2.184924005133463 %); -1.15% (Thailand/16681/1984, Concentration 99.01 uM, Number of replicates 2.0, Standard deviation 2.834161372073491 %); -1.21% (Thailand/16681/1984, Concentration 198.0 uM, Number of replicates 2.0, Standard deviation 2.650064738568028 %).

Consider `O=S(=O)(c1c[nH]c2ccccc12)N1CCC(c2cnc3ccc[nH]c2-3)CC1`, for which the inhibition by setting is: (Thailand/16681/1984, Concentration 49.5 uM, Number of replicates 2.0, Standard deviation 0.7306995754585818 %) -3.25%; (Thailand/16681/1984, Concentration 99.01 uM, Number of replicates 2.0, Standard deviation 0.7492386675662202 %) -1.52%; (Thailand/16681/1984, Concentration 198.0 uM, Number of replicates 2.0, Standard deviation 0.06520690661775055 %) -3.65%.

As to `O=Cc1ccc(N2CCC(C(=O)Nc3c(F)cc(F)cc3Cl)CC2)cc1`, under setting [1], the inhibition was determined as 13.8%.

Consider `O=C(O)c1ccn(C2CCN(Cc3c[nH]c4ccccc34)CC2)n1`, for which the inhibition by setting is: (Thailand/16681/1984, Concentration 49.5 uM, Number of replicates 2.0, Standard deviation 2.1869842063089484 %) -2.55%; (Thailand/16681/1984, Concentration 99.01 uM, Number of replicates 2.0, Standard deviation 2.684345636447637 %) -2.42%; (Thailand/16681/1984, Concentration 198.0 uM, Number of replicates 2.0, Standard deviation 2.4976754742252494 %) -2.46%.

For `CC(C)N(C[C@H](O)COc1cccc2ccccc12)C(=O)C1CCN(c2ccc(C=O)cc2)CC1`, the inhibition under setting [1] was found to be 12.5%.

Take `C[C@@H](c1ccccc1)N(CC1CC1)C(=O)C1CCN(c2ccc(C=O)cc2)CC1`: under setting [1], the inhibition is 13.8%.

Take `Cc1cc(CO)c2cccc(NC(=O)CC3CNC3)c2n1`: the inhibition (Thailand/16681/1984, Concentration 49.95 uM, Number of replicates 2.0, Standard deviation 1.3762045228616064 %) was 7.76% and the inhibition (Thailand/16681/1984, Concentration 99.9 uM, Number of replicates 2.0, Standard deviation 1.6376626661863318 %) was determined as 14.8%.

For the compound `Cc1cc(CO)c2cccc(Cc3ccccc3C(=O)N3CC[C@@H](O)C3)c2n1`, the inhibition reads like this: (Thailand/16681/1984, Concentration 49.95 uM, Number of replicates 2.0, Standard deviation 0.06396003425140426 %) -4.12%; (Thailand/16681/1984, Concentration 99.9 uM, Number of replicates 2.0, Standard deviation 1.3201636707111568 %) -1.44%.

Consider `O=Cc1ccc(N2CCC(C(=O)Nc3ncc(Br)nc3Cl)CC2)cc1`, for which the inhibition under setting [1] turned out to be 11.8%.
